# Among all 410,000 compounds or so, about 5,000 (1.2%) were called active. Inconclusive means that the source gave no clear call. Such entries were picked first, then a sample of the others. Calls come from the whole dose curve; as a rule, active = well fitted inhibition curve with a large enough effect; inconclusive = small, poorly fitted or top-dose-only effect; inactive = no such curve, though single readings can be large or run the other way. Where the call is inconclusive, the potency comes from a doubtful curve fit.
# Test: qHTS for Inhibitors of TGF-b; note: nearly all actives have a fitted effect of over 65% in size
# Settings: HepG2 CAGA-GFP TGF-b/SMAD3 reporter, GFP fluorescence, 18 h, TGF-beta stimulated, 500 pg/mL final; series mostly up to 46.1 µM
# Summary of the method: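 First, reporter cells (HEPG2 CAGA-GFP) rested 2 h at 37 degrees C. Next, compounds were pinned in and TGF-beta added to 500 pg/mL final. After 18 h, GFP was imaged per cell and summed per well.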
# Potency is the fitted concentration of half-maximal effect; tags give direction and shape of the fitted curve.
row,Structure (SMILES),Potency
1,Cc1ccc(C(=O)Nc2ccc(Cl)cn2)cc1,inactive
2,COc1cc(C(=O)NNC(=O)c2cccc(Cl)c2)ccc1OCC(=O)N1CCOCC1,inactive
3,COc1ccc(S(=O)(=O)N2CCCC(C(=O)Nc3ccc4c(c3)OCCO4)C2)cc1 (stereo unspecified),inactive
4,Cc1[nH]c2ccccc2c1C(c1c(C)[nH]c2ccccc12)c1c(C)[nH]c2ccccc12,"inconclusive: 22.4 µM [inhibitor, single point]"
5,COc1ccc(OCc2cc(C(=O)NC(C)Cc3cccnc3)no2)c(Cl)c1 (stereo unspecified),"inconclusive: 22.4 µM [inhibitor, single point]"
6,O=C1C=CC(=O)N1CCNc1ncc(C(F)(F)F)cc1Cl,active: 12.6 µM
7,Cc1ccc(SCC(=O)N2c3ccccc3Sc3ccccc32)cc1,"inconclusive: 12.6 µM [inhibitor, single point]"
8,CN(C)S(=O)(=O)Oc1cccc(C(=O)Nc2ccccc2Cl)c1,inactive
9,O=C1N(Cc2cccc(Cl)c2)C[C@@H]2C[C@@H](c3cccn3-c3cccnc3)N3CCC[C@@]123,active: 15.8 µM
10,CS(=O)(=O)c1ccc(C(=O)OCC(=O)Nc2cc(C(F)(F)F)ccc2Cl)cc1[N+](=O)[O-],active: 8.91 µM
11,CCN(CC)S(=O)(=O)c1ccc(NC(=O)c2ccc(N(C)S(C)(=O)=O)cc2)cc1,"inconclusive: 7.94 µM [inhibitor, partial curve]"
12,CC(C)(C)c1ccc(C(=O)Nc2ccccc2NC(=O)c2ccco2)cc1,"inconclusive: 12.6 µM [inhibitor, single point]"
13,COc1ccc(-c2cc(-c3c(O)c(OC)c4occc4c3OC)[nH]n2)cc1,"inconclusive: 35.5 µM [inhibitor, partial curve, poor fit]"
14,CC(=O)N1CCN(C(=O)c2ccc(NS(=O)(=O)c3ccc(Cl)c(Cl)c3)cc2)CC1,"inconclusive: 31.6 µM [inhibitor, single point]"
15,FC(F)(F)Oc1ccccc1C(c1nnnn1Cc1ccccc1)N1CCN(C/C=C/c2ccccc2)CC1 (stereo unspecified),"inconclusive: 20 µM [inhibitor, single point]"
16,COc1cc(C(=O)NCC(=O)N/N=C/c2cccs2)cc(OC)c1OC,inactive
17,COc1ccc(C(=O)N2CCN(c3ccc(F)cc3)CC2)cc1S(=O)(=O)NC1CC1,inactive
18,Cc1cccc(C(=O)c2c(N)sc3c2CCC(C)C3)c1 (stereo unspecified),"inconclusive: 35.5 µM [inhibitor, single point]"
19,CC(C)N(C(=O)[C@H]1C[C@H](CC(=O)NCC23CC4CC(CC(C4)C2)C3)C(=O)N2CCc3c([nH]c4ccc(Cl)cc34)[C@]12C)C(C)C,active: 8.91 µM
20,COc1ccc(CNC(=O)O[C@@H]2C[C@H]3C(=O)N(c4ccccc4)C(=O)[C@H]3[C@@]3(CN(S(=O)(=O)c4ccc(C)cc4)C[C@H]3C)[C@@H]2O)cc1OC,"inconclusive: 17.8 µM [inhibitor, single point]"
21,CC1=Nn2c(nnc2-c2cc(-c3ccccc3)n[nH]2)SC1,"inconclusive: 35.5 µM [inhibitor, partial curve, poor fit]"

row,Structure (SMILES),Potency
1,CCN(CC)CCN(C(=O)/C=C/c1cccs1)c1nc2ccc(F)cc2s1,"inconclusive: 15.8 µM [inhibitor, partial curve]"
2,Cc1ccc2nc(N(CCCN(C)C)C(=O)CN3C(=O)c4ccccc4C3=O)sc2c1,"inconclusive: 35.5 µM [inhibitor, single point]"
3,CC(=O)c1cc(C(C)=O)c(C)nc1C,"inconclusive: 6.31 µM [inhibitor, single point]"
4,CC(C)CC(=O)NC(c1ccccc1)c1c(O)ccc2ccccc12 (stereo unspecified),"inconclusive: 35.5 µM [inhibitor, single point]"
5,COc1cccc2c1OCC([C@@H]1C[C@H]3CN(Cc4cccc(Cl)c4)C(=O)[C@]34CCCN14)=C2,inactive
6,O=C(NNC(=O)c1cc(OCC(F)(F)F)ccc1OCC(F)(F)F)c1cccc(C(F)(F)F)c1,"inconclusive: 17.8 µM [inhibitor, single point]"
7,CN(C(=O)Cn1cnc2onc(-c3ccc(F)cc3)c2c1=O)c1ccccc1Cl,"inconclusive: 11.2 µM [inhibitor, partial curve, poor fit]"
8,CCOc1cccc(C(=O)NC(=S)Nc2ccc(N3CCCC3)cc2)c1,inactive
9,CC1(C(=O)NCCc2c[nH]c3ccccc23)CCN1Cc1ccccc1OC(F)F (stereo unspecified),"inconclusive: 35.5 µM [inhibitor, single point]"
10,COc1cccc(C2=CC(=O)C[C@H](c3ccc(Cl)cc3)C2)c1OC,"inconclusive: 12.6 µM [inhibitor, partial curve, poor fit]"
11,CCS(=O)(=O)Nc1ccc(C2=NN(C(=O)c3ccco3)C(c3cccs3)C2)cc1 (stereo unspecified),"inconclusive: 14.1 µM [inhibitor, single point]"
12,COc1ccc(CCNC(=O)c2nc(SCc3ccccc3F)ncc2Cl)cc1OC,"inconclusive: 0.1 µM [inhibitor, full curve, poor fit]"
13,CCOC(=O)C1CCN(c2c(C(=O)c3ccc(OC)cc3)cnc3ccccc23)CC1,inactive
14,OC[C@@H]1CN(Cc2ccc(F)cc2)C[C@H](n2cnc3c(N4CCN(c5ccccc5)CC4)ncnc32)O1,"inconclusive: 15.8 µM [inhibitor, single point]"
15,O=C(COC(=O)c1cccc(-n2cnnn2)c1)c1ccc(F)c(F)c1,inactive
16,O/N=C/c1ccc(-c2ccccc2OC(F)(F)F)o1,"inconclusive: 3.98 µM [inhibitor, partial curve, poor fit]"
17,O=S(=O)(c1cccc(F)c1)N1CCc2sccc2C1c1ccc(OC(F)(F)F)cc1 (stereo unspecified),"inconclusive: 10 µM [inhibitor, partial curve]"
18,Cc1cccc(C)c1NC(=O)Cn1c(=O)n(CCCS(=O)(=O)C2CCCCC2)c(=O)c2ccccc21,inactive
19,Cc1ccc(C(=O)Oc2ccc(Cl)c3cccnc23)cc1[N+](=O)[O-],active: 11.2 µM
20,COc1ccc(/C=C/c2c(-c3ccc(OC)cc3)sc3ccc(N4CCOCC4)cc23)cc1,"inconclusive: 0.708 µM [inhibitor, full curve, poor fit]"

# Reference: PubChem BioAssay AID588855 (National Center for Advancing Translational Sciences (NCATS), 2011)
